Measured values as given in paper PMC11564117, “Control of mitophagy initiation and progression by the TBK1 adaptors NAP1 and SINTBAD” (Nature Structural & Molecular Biology, 2024).

T1: GFP–TBK1 (wild type) (UniProt Q9UHD2 1-729)
T1 construct: TBK1, gene-synthesized codon-optimized GST–TEV–EGFP–TBK1 in pFastBac-Dual; also called EGFP–TBK1 WT; EGFP-tagged TBK1; source: Sf9 insect cells, purified (GST-batch protocol); not shown: EGFP, N-terminal, kept
T1 sequence (looked up): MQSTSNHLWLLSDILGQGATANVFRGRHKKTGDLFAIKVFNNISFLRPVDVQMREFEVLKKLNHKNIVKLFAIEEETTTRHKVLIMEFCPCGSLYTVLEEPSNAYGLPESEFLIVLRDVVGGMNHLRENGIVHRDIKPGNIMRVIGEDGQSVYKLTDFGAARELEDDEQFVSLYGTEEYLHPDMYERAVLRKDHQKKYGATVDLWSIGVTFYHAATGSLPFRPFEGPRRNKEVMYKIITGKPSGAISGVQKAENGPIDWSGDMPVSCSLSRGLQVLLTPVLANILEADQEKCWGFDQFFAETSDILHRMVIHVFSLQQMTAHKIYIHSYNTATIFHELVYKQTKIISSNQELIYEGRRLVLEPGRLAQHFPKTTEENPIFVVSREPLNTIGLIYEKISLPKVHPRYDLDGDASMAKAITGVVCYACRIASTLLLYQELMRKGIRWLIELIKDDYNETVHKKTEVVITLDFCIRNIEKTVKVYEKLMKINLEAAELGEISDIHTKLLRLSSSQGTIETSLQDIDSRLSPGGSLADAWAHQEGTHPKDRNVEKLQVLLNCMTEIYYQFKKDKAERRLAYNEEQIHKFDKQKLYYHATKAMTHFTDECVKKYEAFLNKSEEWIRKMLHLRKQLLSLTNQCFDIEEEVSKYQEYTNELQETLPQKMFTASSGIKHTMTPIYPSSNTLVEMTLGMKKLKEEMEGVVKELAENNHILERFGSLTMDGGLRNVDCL

B1: MBP–NAP1 delta-NDP52 (S37K/A44E) (natural protein)
chain: not shown
notes: NAP1 (AZI2), human cDNA, gene-synthesized, with an N-terminal MBP-tag followed by a TEV cleavage site; S37K and A44E; source: E. coli Rosetta pLysS, purified (amylose beads, SEC); not shown: MBP, N-terminal, kept
B2: OPTN (unlabeled) (natural protein)
chain: not shown
notes: OPTN (optineurin); also called unlabeled OPTN
B3: OPTN-GST (natural protein)
chain: not shown
notes: OPTN (optineurin), human cDNA in pETDuet-1 with a carboxy-terminal GST-tag; the only GST-tagged OPTN of the methods is OPTN-GST; also called GST–OPTN; source: E. coli Rosetta pLysS, purified (GST-batch protocol); not shown: GST, C-terminal, kept
B4: mCherry–OPTN (natural protein)
chain: not shown
notes: OPTN (optineurin), human cDNA in pETDuet-1 as 6×His-TEV–mCherry–OPTN; also called mCherry-tagged OPTN; optineurin; source: E. coli Rosetta pLysS, purified (His-Trap, TEV, SEC); not shown: His6, N-terminal, cleaved; mCherry, N-terminal, kept

Assays:
Conditions in all cases: both partners purified
GFP–TBK1 (wild type) [1] = biological target: T1, GFP–TBK1 (wild type); experiment: microscopy-based bead assay; Figs. 5b, 7d, 7f, Extended Data Fig. 9b: GST–4×Ub on glutathione beads; OPTN (mCherry-tagged or unlabeled) and GFP–TBK1 250 nM; NAP1, MBP–NAP1 or SINTBAD–mCherry 100 nM to 10 µM; unlabeled NDP52 250 nM where indicated; 25 mM Tris-HCl pH 7.4, 150 mM NaCl, 1 mM DTT; Fig. 5b without ATP, Fig. 7f with or without ATP/MgCl2; 30 min; confocal imaging
[2] = biological target: T2, Linear tetra-ubiquitin fused to GST (GST–4×Ub) (UniProt P0CG48 partial chain; P0CG48 partial chain; P0CG48 partial chain; P0CG48 partial chain); experiment: as above
T2 construct: ubiquitin, unit 1 of 4 of linear tetra-ubiquitin, units joined head to tail; ubiquitin, unit 2 of 4 of linear tetra-ubiquitin; ubiquitin, unit 3 of 4 of linear tetra-ubiquitin; ubiquitin, unit 4 of 4 of linear tetra-ubiquitin; Cloned into pGEX-4T1; held on glutathione beads by its GST; also called GST-tagged linear ubiquitin chains; linear 4× ubiquitin; source: E. coli Rosetta pLysS, purified …

GFP–TBK1 (wild type) [3] = biological target: T1, GFP–TBK1 (wild type); experiment: microscopy-based bead assay; Fig. 6e, Extended Data Fig. 10: GST, OPTN-GST or GST–NAP1 on glutathione beads; EGFP–TBK1 WT, KD or E696K 250 nM; 25 mM Tris-HCl pH 7.4, 150 mM NaCl, 1 mM DTT; 30 min; Extended Data Fig. 10 with and without ATP/MgCl2 (interaction weakened with ATP/MgCl2); confocal imaging
GFP–TBK1 (wild type) [4] = biological target: T1, GFP–TBK1 (wild type); experiment: pull-down; Extended Data Fig. 5, Fig. 7e: GFP–TBK1 pre-loaded on GFP-Trap agarose beads; mCherry–OPTN 1 µM, mCherry–NDP52 1 µM, NAP1 1–10 µM; 25 mM Tris-HCl pH 7.4, 150 mM NaCl, 1 mM DTT; 1 h at 4 °C; SDS–PAGE and Coomassie staining

T2 sequence (P0CG48 1-304): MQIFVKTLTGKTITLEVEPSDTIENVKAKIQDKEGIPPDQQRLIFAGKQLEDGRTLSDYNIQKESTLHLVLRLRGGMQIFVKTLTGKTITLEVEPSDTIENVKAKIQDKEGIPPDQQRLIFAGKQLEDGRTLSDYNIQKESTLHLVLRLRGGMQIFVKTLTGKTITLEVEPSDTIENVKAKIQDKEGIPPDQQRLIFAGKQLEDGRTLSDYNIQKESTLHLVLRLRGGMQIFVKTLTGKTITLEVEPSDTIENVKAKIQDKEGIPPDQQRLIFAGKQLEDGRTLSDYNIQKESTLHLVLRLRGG

Binder | binding result (GFP–TBK1 (wild type) [1]) | binding result [2] | binding result (GFP–TBK1 (wild type) [3]) | binding result (GFP–TBK1 (wild type) [4])
B1 | binds | – | – | –
B2 | binds | binds | – | –
B3 | – | – | binds | –
B4 | – | binds | – | binds
